The results in this text go back to PubChem BioAssay (NCI).

SMILES strings stand for the structures. “And” between values parts separate entries of the source, which are not always exact repeats. Identical values can stand only once.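 Following 48 hours of exposure in 96-well plates, responses at five concentrations were used to interpolate endpoints linearly. Here, GI50 denotes the concentration required for 50% inhibition of growth. TGI denotes the concentration required for complete inhibition of growth.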

In the experiment the test system is NCI-H322M lung. Nature of the experiment: NCI-60 cell line screen, 48 h.
`Cc1ccc(S(=O)(=O)NC(=O)Nc2ccc(C(=O)O)c(O)c2)cc1`: the TGI is over 100 µM.

Regarding `N#CC(=N)c1ncn(CCO)c1NC(=O)C(F)(F)F`, the TGI is over 100 µM.

As for `Clc1ccc(/C=C2\CCCC3C2=Nc2ccccc2NC3c2ccc(Cl)cc2)cc1` (configuration not stated), the GI50 was 22 µM and the TGI is over 66.5 µM.

For the compound `N#Cc1c(-c2ccccc2)c(C#N)c(=S)n(C2OC(CO)C(O)C(O)C2O)c1N` (configuration not stated), the TGI is over 100 µM.

For `COC(=O)CC1C(C)(C)C(=O)C2CC3=C4CC(=O)OC(c5ccoc5)C4(C)CCC3C1(C)C2=O` (configuration not stated), the TGI was over 100 µM.

With `NC(=O)c1cccc(N2Cc3ccccc3OC3=C2C(=O)c2c(O)ccc(O)c2C3=O)c1`, the GI50 is 2.83 µM and the TGI was 10.3 µM.

With `CCN(CC)c1ccc2cc(-c3nc(-c4ccccc4)n[nH]3)c(=O)oc2c1`, the TGI stood at 81.9 µM.

Compound `CC(=O)c1c(P(=O)(OC(C)C)OC(C)C)nn(-c2ccc([N+](=O)[O-])cc2)c1C` showed a TGI of over 100 µM.

On to `O=c1c2cccnc2[nH]c2ccc3[nH]ncc3c12`, for which the TGI is over 10 µM.

For the compound `O=C(C[Si](CC(=O)c1cccc(C(F)(F)F)c1)CC(=O)c1cccc(C(F)(F)F)c1)c1cccc(C(F)(F)F)c1`, the GI50 is 4.09 µM and the TGI is 15.6 µM.

The compound `O=C(CCN1CCCC1)CC(c1ccccc1)c1c(O)c2ccccc2oc1=O` (configuration not stated) returned a TGI of over 100 µM.

The compound `C[C@@H]1CCC[C@]2(C)O[C@H]2CC[C@@](C)(O)[C@@H]2CC3=C(CO)C(=O)O[C@H]3[C@H]1O2` showed a TGI of over 50 µM.

`O=C(OCCN1CCCCCC1)C(c1ccsc1)C1CCCCC1` (configuration not stated) yielded a TGI of 41 µM.

On to `Cc1cccc(C)c1NC(=O)CCC(=O)CC(=O)C(C)C`, for which the TGI was over 100 µM.

Regarding `COc1cccc(/C=N/Nc2ncnc3c2cnn3-c2cccc(OC)c2)c1`, the GI50 is over 25 µM and the TGI is over 25 µM.

As for `COc1ccc(OC)c(N2C(=O)/C(=C\c3ccccc3)SC2c2cc(OC)c(OC)c(OC)c2)c1` (configuration not stated), the TGI was over 100 µM.

`CCC(C(C)N1CC(=O)NC(=O)C1)N1CC(=O)NC(=O)C1` (configuration not stated) showed a TGI of over 100 µM.

Take `C=CCC12CC(=O)CCC1CC(=O)C2` (configuration not stated): the TGI is over 100 µM.

For the compound `CN(C)c1ccc2nc3ccc(N)cc3[n+](-c3ccccc3)c2c1`, the GI50 was 15 µM and 4.43 µM; the TGI was 71.9 µM and 29.5 µM.

Regarding `CC(C)(C)OC(=O)N1CCCC1=O`, the TGI is over 10 µM.

`COc1ccc(CCn2nccc2C)cc1`: the TGI is over 100 µM.

As to `Cc1ccc2c(c1)C(=O)c1[nH]c3ccc(F)cc3c1CO2`, the TGI is over 100 µM.

`Cn1c(=O)cc(NNc2ccccc2)[nH]c1=O` registered a TGI of over 100 µM.

`CCCCCCC1NN(C(C)=O)C(CCCCCC)NN1C(C)=O` (configuration not stated) gave a TGI of over 100 µM.

In turn, `O=C1C=CC(=O)c2ccc(=O)ccc21` came in with a TGI of 25.6 µM.

The compound `Cc1cc(C)c(OC(=O)Nc2cccc3ccccc23)c(-c2ccccc2)c1` returned a TGI of over 100 µM.

On to `C=C(C)C(=O)OC1CC2(C)OC(=CC2=O)C(C)CC2OC(=O)C(=C)C12` (configuration not stated), for which the TGI was over 57.2 µM.

`COc1ccc(-c2cc(-c3cc(F)c(Cl)cc3Cl)[nH]n2)cc1OC` showed a TGI of over 100 µM.

In turn, `COC(=O)c1cc2c3c(c1)Oc1cc(C(=O)OC)cc4c1C3c1c(cc(C(=O)OC)cc1O4)O2` yielded a TGI of over 100 µM.

As for `COc1ccc(/C=N/C2=C(C#N)C(c3ccccc3)c3c(ccc4ccccc34)O2)cc1` (configuration not stated), the GI50 was 3.89 µM and the TGI is over 100 µM.

`CCC12CCCN(Cc3ccccc3)C1c1c(n(C)c3ccccc13)[C@H](C(=O)OC)C2` (some centres not stated) yielded a TGI of over 239 µM.

Regarding `CC1CN1C1=CC(=O)c2c(c(CO)cn2C)C1=O` (configuration not stated), the GI50 was 0.19 µM and the TGI turned out to be 0.561 µM.

As for `Cc1cc(O)c2c3c1C(=O)Oc1c(CO)c(O)c(C(=O)O)c(c1O3)C=NN=Cc1c3c(c(CO)c(O)c1C(=O)O)OC(=O)c1c(C)cc(O)c(c1O3)C=NN=C2`, the TGI was over 100 µM.

As to `C[C@@H](O)[C@H]1C(=O)N2C(C(=O)O)=C(SCCN=CN)C[C@H]12`, the GI50 was 2.18 µM and the TGI worked out at 6.03 µM.

Take `COC1CC(C)(N)C(O)C(C)O1` (configuration not stated): the TGI was over 100 µM.

Compound `O=C1c2ccc(O)cc2OC(c2cc(O)c(O)c(O)c2)C1O` (configuration not stated) registered a TGI of over 100 µM.

Take `CC(C)[Si]1(C(C)C)OCC2OC(N3C(=O)NC(=O)C[C@@H]3C(O)c3ccccc3)CC2O[Si](C(C)C)(C(C)C)O1` (some centres not stated): the TGI is 28.3 µM.

Regarding `Cn1cc(NC(=O)[C@H]2CCC(N)=N2)cc1C(=O)NCCC(=N)N`, the TGI was over 100 µM.

The compound `S=C1NCN2CCN(CC2)CNC(=S)C(=S)NCN2CCN(CC2)CNC1=S` showed a TGI of over 100 µM.

On to `O=c1[nH]nc(Cc2ccccc2)n1/N=C\CC/C=N\n1c(Cc2ccccc2)n[nH]c1=O`, for which the TGI is over 100 µM.

`C1CN1c1nc(N2CC2)nc(N2CC2)n1`: the TGI is 54.4 µM and 53.8 µM.

Compound `COc1ccc(P2(=S)Oc3ccc(C(c4ccccc4)(c4ccccc4)c4ccccc4)cc3O2)cc1` (configuration not stated) gave a TGI of 28.1 µM.

`C[C@]12CC[C@@H]3c4cc(Br)c(O)c(Br)c4CC[C@H]3[C@@H]1CCC2=O` showed a TGI of 48.3 µM.

`Oc1ccc(N=Cc2ccc(C=Nc3ccc(O)cc3)cc2)cc1` showed a TGI of 30 µM.

In turn, `CC1=CC2CCC1(C)C/C2=C(/C)OC=O` (configuration not stated) came in with a TGI of over 100 µM.

In the case of `c1ccc2c(c1)SC1=Nc3sc4ccccc4[n+]3CN12`, the TGI is over 100 µM.

`COc1ccc(/C(=N\N=C(N)N)C(c2ccc(OC)cc2)C2OC(=O)c3ccccc32)cc1` (configuration not stated) returned a TGI of over 100 µM.

Regarding `Nc1ccn(C2OC(CO)C3[O][Sn]([c]4ccccc4)([c]4ccccc4)[O]C32)c(=O)n1` (configuration not stated), the GI50 was 46.8 µM.

With `CC(=O)[CH-]C(C)=O.CC(=O)[CH-]C(C)=O.[CH2-]CCCCCCC.[CH2-]CCCCCCC.[Sn+4]`, the GI50 was 21.2 µM and the TGI worked out at 52.3 µM.

In the case of `COC1CC(OC2C(C)OC(OC3C(C)OC(OC4C(C)OC(O[C@H]5CC[C@@]6(C)C(=CC[C@]7(O)[C@@H]6C[C@@H](OC(=O)/C=C/c6ccccc6)[C@@]6(C)[C@]7(O)CC[C@@]6(O)C(C)=O)C5)CC4OC)CC3OC)CC2OC)OC(C)C1O` (some centres not stated), the TGI is over 12.5 µM.

Consider `COC(=O)C(N)CSC(c1ccccc1)(c1ccccc1)c1ccccc1` (configuration not stated), for which the GI50 is 0.695 µM and the TGI is over 100 µM.

Take `CN(C)CCCN1c2ccccc2CCc2cccc([N+](=O)[O-])c21`: the TGI is 63.8 µM.

Take `CCCc1cc(=O)oc2c3c(c4c(c12)OC(C)(C)CC4)O[C@H](C)[C@@H](C)[C@H]3O`: the TGI was determined as 30.2 µM.

The compound `CN(C)c1ccc(/C=C/c2ccc3ccccc3[n+]2C)cc1` registered a TGI of over 100 µM.

`Cc1noc(C)c1C1=CCCCc2ccccc21`: the TGI is over 100 µM.

Take `CCOC(=O)c1cc2c(c3ccsc13)C1(C)CCC3c4ccc(OC)cc4CCC3C1C2` (configuration not stated): the GI50 was over 100 µM and the TGI was over 100 µM.

In turn, `CCCCC#COS(=O)(=O)c1ccc(C)cc1` displayed a TGI of over 100 µM.

For `Cc1cc(-c2no[n+]([O-])c2-c2cc(C)sc2S(C)(=O)=O)c(S(C)(=O)=O)s1`, the TGI was over 100 µM.

The compound `CN(C)CCNc1ccc(NCCN(C)C)c2c1C(=O)c1ncsc1C2=O` registered a TGI of 29.5 µM.

As for `O=C1c2ccccc2C(=O)c2c(N=Nc3[nH]c(=S)[nH]c3O)cccc21`, the GI50 was 1.18 µM and the TGI was over 100 µM.

Regarding `O=Cc1cc2c(s1)C(=O)c1sccc1C2=O`, the TGI worked out at 2.98 µM.

Consider `C[C@@]1(CO)[C@H](O)CC[C@@]2(C)[C@H]1CC[C@H]1C[C@@H]3C[C@@]12CC[C@@]3(O)COC(=O)CN`, for which the GI50 is > 500 µM and 102 µM; the TGI was > 500 µM and 234 µM.

Turning to `COC(=O)[C@@H](C[C@H](Cc1ccccc1)NC(=O)c1csc([C@@H](C[C@H](C(C)C)N(C)C(=O)[C@@H](NC(=O)[C@H]2CCCCN2C)C(C)C)OC(C)=O)n1)NC(=O)OCc1ccccc1`, the GI50 is 0.00212 µM and the TGI was over 8.33 µM.

`CN1CCc2c(sc3ncn(N)c(=N)c23)C1` registered a TGI of over 100 µM.

`COc1ccc(NC(=O)C2C(=O)N(c3ccc(OC)cc3)C(=O)/C2=N\N)cc1` (configuration not stated) yielded a TGI of over 100 µM.

On to `NC1CSc2ccccc2NC1=O` (configuration not stated), for which the TGI is over 100 µM.

The compound `N=C(N)SCCc1ccncc1` gave a TGI of over 100 µM.

The compound `COc1cc(-c2cc(=O)c3c(OC)c(OC)c(OC)c(OC)c3o2)cc(OC)c1OC` yielded a TGI of over 100 µM.

In the case of `Brc1ccc(N=NN2CCCC2)cc1`, the TGI is over 100 µM.

In turn, `CC1(C)C(OC(=O)c2ccccc2)C[C@]23CCC[C@](C)(C[C@@H](O)C12)C3` (some centres not stated) returned a TGI of 33.1 µM.

Compound `CCOC(=O)c1cc(NC(=O)N(CCC#N)CCN(C(=O)N[C@@H](Cc2ccccc2)C(=O)N[C@@H](CC(C)C)C(=O)NC)c2ccccc2)ccc1OC` registered a TGI of over 100 µM.

As to `CC1CCC2(NC1)OC1CC3C4CCC5CC(OC6OC(CO)C(OC7OC(CO)C(O)C(OC8OCC(O)C(O)C8O)C7OC7OC(CO)C(O)C(O)C7O)C(O)C6O)CCC5(C)C4CCC3(C)C1C2C` (configuration not stated), the TGI amounted to 3.73 µM.

`CCOC(=O)C(NC(=O)CC(C)C)(NC(C)C)C(F)(F)F` (configuration not stated) returned a TGI of over 100 µM.

As to `COC(=O)[C@]12CSCN1C(=O)C(C(C)=O)=NN2C(=O)[C@](OC)(c1ccccc1)C(F)(F)F`, the TGI was over 100 µM.

With `CN([O-])c1nc(N(C)[O-])nc(N2CCOCC2)n1.CN([O-])c1nc(N(C)[OH2+])nc(N2CCOCC2)n1.[Fe+3]`, the GI50 is 79.3 µM and the TGI is over 100 µM.

Consider `CC(=O)c1cc2c(c(O)c1C)C(=O)C(=O)c1c(O)cccc1-2`, for which the GI50 was 0.43 µM and the TGI is 0.849 µM.

On to `CCOC(=O)C1=C(C)N(c2ccc(OC)cc2)C2(O)C=CC(=O)C3C(=O)N(c4ccccc4)C(=O)C132` (configuration not stated), for which the GI50 was 4.35 µM and the TGI worked out at 14.3 µM.

As to `C=CC(=O)NC(O)(C(=O)OCC)C(F)(F)F` (configuration not stated), the TGI is over 100 µM.

As for `N#CC1(C#N)C2=C(CCCC2)NC(c2ccc(Br)cc2)C1(C#N)C#N` (configuration not stated), the TGI worked out at 37.1 µM.

With `CCCCCCc1nn2c(-c3ccncc3)nnc2s1`, the TGI is over 10 µM.

With `COc1cccc2c1-c1ccccc1C2=O`, the GI50 is 4.53 µM and the TGI was over 100 µM.

`CC1(CO)OC(n2cnc3cncnc32)CC1O` (configuration not stated) showed a TGI of over 100 µM.

As to `Cn1ccnc1Sc1ccc(/C=N/NC(=O)c2ccccc2[N+](=O)[O-])cc1[N+](=O)[O-]`, the TGI was over 100 µM.

`COc1cccc(NC(=O)CC(=O)N2NC(c3ccccc3)C(N=Nc3cccc(C(=O)O)c3)C2=O)c1` (configuration not stated) had a TGI of over 100 µM.
